# Results as given in the supplement of paper PMC9446081.
# Among all 39,000 compounds or so, about 220 (0.56%) showed activity. The list shows a part of the results.
# Tested on: Escherichia coli K-12 BW25113
# Test: relative growth (OD600 normalised to plate interquartile mean) (fraction); higher = less growth inhibition, active = 0.2 or less
# Conditions: 50 µM; LB; incubation time: overnight (16-24 h)
# 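Note: static incubation at 37 °C against the wild-type strain, values averaged over two biological replicates.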
row,SMILES,relative growth
1,Cc1ccc(S(=O)(=O)N2C[C@H](O)COC[C@H]3O[C@@H](CC(=O)NCCCN(C)C)CC[C@@H]32)cc1,inactive: 0.999
2,C[C@H](CO)N1C[C@H](C)[C@@H](CN(C)S(=O)(=O)c2cn(C)cn2)OCc2ccccc2-c2ccccc2C1=O,inactive: 0.994
3,C[C@H](CO)N1C[C@H](C)[C@H](CN(C)CC2CCCCC2)OCCCC[C@H](C)Oc2ccc(NC(=O)Nc3ccc4c(c3)OCO4)cc2C1=O,inactive: 1.01
4,C=CC[C@H](CC(=O)NCCO)C(=O)N[C@H](COC(=O)[C@H](CC=C)CC(=O)OC(C)(C)C)Cc1ccccc1,inactive: 1.02
5,C[C@H](CO)N1C[C@H](C)[C@H](CN(C)Cc2ccc(C(F)(F)F)cc2)Oc2c(NC(=O)c3nc4ccccc4s3)cccc2C1=O,inactive: 1.04
6,CCS(=O)(=O)NCC[C@H]1CC[C@H](NS(=O)(=O)c2cccc(F)c2)[C@H](CO)O1,inactive: 1.01
7,Cc1ccc(S(=O)(=O)N(C)C[C@@H]2Oc3ncc(C#Cc4ccc(F)cc4)cc3C(=O)N([C@H](C)CO)C[C@@H]2C)cc1,inactive: 1.01
8,C=C(C)[C@]1(O)OC(=O)C=C1OC,inactive: 1.01
9,NCC(=O)Nc1ccc(Br)cc1,inactive: 0.673
10,O=C(N[C@@H](c1ccc(F)cc1)c1ccc2ccccc2n1)C1CCN(CCOc2ccc(F)cc2)CC1,inactive: 0.973
11,CCn1cc(C(=O)O)c(=O)c2cc(F)c(N3CCN(C)CC3)cc21.CS(=O)(=O)O,active: 0.0455
12,Cc1noc(C)c1S(=O)(=O)Nc1ccc2c(c1)C(=O)N([C@H](C)CO)C[C@@H](C)[C@@H](CN(C)S(C)(=O)=O)OCCCC[C@H](C)O2,inactive: 1.01
13,Cl.N#Cc1ccc2[nH]cc(CCCCN3CCN(c4ccc5oc(C(N)=O)cc5c4)CC3)c2c1,inactive: 0.875
14,Cc1onc(-c2ccccc2)c1C(=O)NC1C(=O)N2C1SC(C)(C)C2C(=O)[O-].[Na+] (stereo unspecified),inactive: 1.1
15,C[C@H](CO)N1C[C@H](C)[C@H](CN(C)C(=O)Nc2ccc(C(F)(F)F)cc2)Oc2c(NS(=O)(=O)c3ccc(F)cc3)cccc2C1=O,inactive: 0.994
16,C[C@@H]1CN([C@H](C)CO)C(=O)Cc2cc(NC(=O)Nc3ccc4c(c3)OCO4)ccc2O[C@H]1CN(C)C(=O)Nc1cccc2ccccc12,inactive: 1.02
17,C[C@@H]1CN([C@H](C)CO)C(=O)c2cc(NC(=O)Nc3cccc4ccccc34)ccc2O[C@@H](C)CCCCO[C@@H]1CN(C)C(=O)Cc1ccccc1,inactive: 1.01
18,Cc1noc(C)c1S(=O)(=O)N(C)C[C@H]1Oc2ccc(NC(=O)NC3CCCCC3)cc2C(=O)N([C@H](C)CO)C[C@H]1C,inactive: 0.986
19,CN1CCN(C(=O)C[C@@H]2CC[C@@H]3[C@@H](COc4ccc(NC(=O)c5cccs5)cc4C(=O)N3C)O2)CC1,inactive: 0.988
20,C[C@H]1CN([C@@H](C)CO)C(=O)c2cccc(NC(=O)Nc3ccccc3)c2O[C@@H]1CN(C)Cc1ccc(C(F)(F)F)cc1,inactive: 0.821
21,COc1cccc(NC(=O)N(C)C[C@H]2Oc3cc(C#CC4(O)CCCC4)ccc3S(=O)(=O)N([C@H](C)CO)C[C@H]2C)c1,inactive: 1

row,SMILES,relative growth
1,CC(C)CNc1nc(=O)cn[nH]1,inactive: 1.01
2,COc1cc2c(cc1OC)CN(CCc1ccc(NC(=O)c3cccc4c(=O)c5cccc(OC)c5[nH]c34)cc1)CC2,inactive: 0.945
3,CC(C)n1c(C=CC(O)CC(O)CC(=O)[O-])c(-c2ccc(F)cc2)c2ccccc21.[Na+] (stereo unspecified),inactive: 1.19
4,C[C@@H]1CN([C@@H](C)CO)C(=O)CCCn2cc(nn2)CO[C@H]1CN(C)C(=O)Nc1ccc2c(c1)OCO2,inactive: 1
5,CCCNC(=O)N1C[C@]2(CN(C2)S(=O)(=O)c2ccccc2)c2c(n(c3cc(ccc23)OC)C)[C@@H]1CO,inactive: 0.999
6,C[C@H]1CCCCO[C@H](CN(C)Cc2ccc(Cl)c(Cl)c2)[C@@H](C)CN([C@@H](C)CO)C(=O)c2cc(NC(=O)Nc3ccc(C(F)(F)F)cc3)ccc2O1,inactive: 1
7,C[C@H]1CN([C@@H](C)CO)C(=O)c2cc(N(C)C)ccc2O[C@@H]1CN(C)S(C)(=O)=O,inactive: 0.98
8,N[C@@H](CCc1ccccc1Cl)c1ccc2c(c1)OCCO2,inactive: 0.957
9,C[C@H]1CN([C@@H](C)CO)C(=O)c2cc(NC(=O)Nc3ccc4c(c3)OCO4)ccc2O[C@@H]1CN(C)Cc1ccc(Cl)c(Cl)c1,inactive: 0.985
10,C=CC(C)(O)CCC=C(C)C (stereo unspecified),inactive: 1.07
11,C[C@H]1CN([C@@H](C)CO)C(=O)c2cc(NS(=O)(=O)c3cccs3)ccc2O[C@@H]1CN(C)Cc1ccc(Cl)c(Cl)c1,inactive: 0.995
12,CC(=O)N[C@H]1[C@H](O[C@@H]2[C@@H](O)[C@H](C)O[C@@H](Oc3ccc4c(=O)c(-c5ccc(O)cc5)coc4c3)[C@@H]2O)O[C@H](CO)[C@@H](O[C@@H]2O[C@@H](C)[C@H](O)[C@@H](O)[C@H]2O)[C@@H]1O,inactive: 0.994
13,C[C@@H]1CN([C@@H](C)CO)C(=O)c2cc(NC(=O)Cc3ccccc3)ccc2O[C@@H](C)CCCCO[C@H]1CN(C)Cc1ccc(C(=O)O)cc1,inactive: 0.978
14,COc1ccc2c3c(n(c2c1)C)[C@@H](CO)N(C[C@]13CN(C1)C(=O)C)C(=O)CN1CCOCC1,inactive: 0.995
15,O=C(C[C@@H]1CC[C@@H]2[C@H](COC[C@@H](O)CN2S(=O)(=O)c2ccccc2)O1)NCc1ccc2c(c1)OCO2,inactive: 1.03
16,C(=C\[C@@H]1Nc2ccccc2-c2nc3ccccc3n21)/c1ccccc1,inactive: 0.985
17,CC(C)NC(=O)N(C)C[C@H]1Oc2ccc(NC(=O)Cc3ccccc3)cc2C(=O)N([C@@H](C)CO)C[C@H]1C,inactive: 0.993
18,C[C@@H]1CN([C@H](C)CO)S(=O)(=O)c2ccc(-c3cccc(C#N)c3)cc2O[C@H]1CN(C)C(=O)c1ccncc1,inactive: 1.05
19,COCCOC(=O)N1C(=O)[C@@]2(c3cc(C#CCNC(N)=O)ccc31)[C@H](C(=O)N1CCCCCCC1)[C@H]1C(=O)O[C@H](c3ccccc3)[C@H](c3ccccc3)N1[C@@H]2c1ccc(O)cc1,inactive: 1.05
20,C[C@@H]1CN([C@@H](C)CO)C(=O)c2cc(NC(=O)Nc3ccc4c(c3)OCO4)ccc2O[C@@H](C)CCCCO[C@H]1CN(C)C(=O)c1ccccc1,inactive: 1.01
21,CS(=O)(=O)N1CCC2(CC1)OCCO2,inactive: 1.08

row,SMILES,relative growth
1,C[C@@H]1CN([C@@H](C)CO)C(=O)Cc2cc(NS(=O)(=O)c3cn(C)cn3)ccc2O[C@H]1CN(C)C(=O)Nc1ccc2c(c1)OCO2,inactive: 0.988
2,COC(=O)[C@@H](C)N(C#N)c1nc(C)nc(C)n1,inactive: 1.01
3,C[C@@H]1CCCCO[C@@H](CN(C)C(=O)Nc2cccc3ccccc23)[C@H](C)CN([C@@H](C)CO)C(=O)c2cc(NS(=O)(=O)c3ccc(F)cc3)ccc2O1,inactive: 1.02
4,NC(=O)CC[C@H](N)C(=O)O,inactive: 0.974
5,O=C(/C=C/c1ccccc1)c1ccc(O[C@@H]2O[C@H](CO)[C@@H](O)[C@H](O)[C@H]2O)cc1O,inactive: 0.999
6,C[C@@H]1CN([C@@H](C)CO)C(=O)c2cc(NC(=O)Cc3ccccc3)ccc2O[C@@H](C)CCCCO[C@H]1CN(C)Cc1ccncc1,inactive: 0.994
7,C[C@H](CO)N1C[C@H](C)[C@@H](CN(C)C(=O)Nc2cccc3ccccc23)Oc2ccc(NC(=O)CCC(F)(F)F)cc2C1=O,inactive: 1
8,C[C@H]1CCCCO[C@H](CN(C)Cc2ccc(Cl)c(Cl)c2)[C@@H](C)CN([C@@H](C)CO)C(=O)c2cc(NC(=O)Nc3cccc4ccccc34)ccc2O1,inactive: 1.01
9,C[C@@H]1CN([C@@H](C)CO)S(=O)(=O)c2ccc(C#CCC3CCCC3)cc2O[C@H]1CN(C)C(=O)CN(C)C,inactive: 0.968
10,C[C@@H]1CN([C@H](C)CO)C(=O)c2cc(NC(=O)C3CCCCC3)ccc2O[C@@H](C)CCCCO[C@H]1CN(C)C(=O)CCC(F)(F)F,inactive: 0.998
11,C[C@@H]1CN([C@H](C)CO)C(=O)Cc2cc(NS(=O)(=O)c3ccc(F)cc3)ccc2O[C@@H]1CN(C)S(=O)(=O)c1ccccc1,inactive: 0.989
12,Cc1c(C)c2c(c(C)c1O)CCC(C)(CCCC(C)CCCC(C)CCCC(C)C)O2 (stereo not drawn) [alpha-TOCHOPHEROL [4 mM]],inactive: 1.11
13,CNC[C@H]1OCCCC[C@@H](C)Oc2ccc(NC(=O)CCCN(C)C)cc2C(=O)N([C@H](C)CO)C[C@@H]1C,inactive: 0.986
14,CC(C)N1C[C@@H](CN(C)CCc2ccc(Cl)c(Cl)c2)Oc2c(NC(=O)c3ccncc3)cccc2C1=O,inactive: 1.01
15,C[C@H]1CCCCO[C@@H](CN(C)S(=O)(=O)c2ccc(Cl)cc2)[C@@H](C)CN([C@@H](C)CO)C(=O)c2cc(NC(=O)CCC(F)(F)F)ccc2O1,inactive: 1
16,C[C@H]1CN([C@@H](C)CO)C(=O)c2cc(NC(=O)CCC(F)(F)F)ccc2O[C@@H]1CN(C)S(=O)(=O)c1cn(C)cn1,inactive: 1
17,COc1ccc(S(=O)(=O)N[C@@H]2C=C[C@H](CC(=O)N3CCC(Cc4ccccc4)CC3)O[C@@H]2CO)cc1,inactive: 1.03
18,CN(C)CC(=O)N[C@@H]1C=C[C@@H](CC(=O)O)O[C@@H]1CO,inactive: 0.986
19,C[C@H]1CCCCO[C@@H](CN(C)CC2CCCCC2)[C@@H](C)CN([C@@H](C)CO)C(=O)c2cc(NC(=O)Nc3ccc(C(F)(F)F)cc3)ccc2O1,inactive: 1.01
